Test results as given in PubChem BioAssay AID1508623 (National Center for Advancing Translational Sciences (NCATS), 2021).
Out of some 48,000 compounds screened, about 450 (0.94%) were called active. Inconclusive means that the source gave no clear call. Such entries were picked first, then a sample of the others. Calls come from the whole dose curve; as a rule, active = well fitted inhibition curve with a large enough effect; inconclusive = small, poorly fitted or top-dose-only effect; inactive = no such curve, though single readings can be large or run the other way. A potency beside an inconclusive call is a rough fit, not a confirmed value.

Assay: Primary qHTS for Identification of Small Molecule Inhibitors of Huntingtin Promoter Activity; note: nearly all actives have a fitted effect of over 50% in size
Conditions: HEK293 HTT promoter firefly luciferase reporter (activity 0% = vehicle and -100% = no light), 24 h; series mostly up to 57.5 µM
Summary of the method: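 Firefly luciferase signal from promoter-reporter HEK293 cells was scaled between vehicle (0%) and zero RLU (-100%). Compounds were tested at final concentrations of up to 57.5 uM over 24 h at 37 degrees C. PTC124 at 50 uM final served as control inhibitor.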
Potency is the fitted concentration of half-maximal effect; tags give direction and shape of the fitted curve.

Potency, inactive:
Cc1ccc2oc(-c3ccc(C)c(NC(=O)c4ccc5c(c4)OCCO5)c3)nc2c1
CC(CCO)Nc1nc2c(c(=O)n(C)c(=O)n2C)n1Cc1ccc(Br)cc1 (stereo not given)
CCOc1ccccc1NC(=O)c1c(NCc2ccc(C)o2)sc2c1CCCCC2
Cc1oc(-c2ccccc2F)nc1CN1CCC(C(=O)NCCc2ccc(Cl)cc2)CC1
CCCCC(=O)Nc1cc(-c2nc3ccccc3o2)ccc1OC
COc1ccc(CNC(=O)c2cnc(N3CCCC3)nc2C)cc1
COc1ccc(CSc2nc3ccncc3n2Cc2nc(-c3ccc(OC)c(OC)c3)oc2C)cc1
COc1ccccc1CNC(=O)Cn1c(=O)ccc2cc(S(=O)(=O)N3CCC(C)CC3)ccc21
C#Cc1cccc(Nc2ncnc3cc(OC)c(OCCCCCCC(=O)NO)cc23)c1
O=C(Nc1ccc(F)cc1)c1ncn(-c2ccccc2)n1

Potency, inconclusive:
COc1ccc(-c2n[nH]c3c2C(c2ccc(Cl)cc2Cl)NC3=O)cc1 (stereo not given) 8.91 µM [inhibitor, partial curve, poor fit]
CCN(CCCNC(=O)c1ccc(Sc2ccc(C)cc2)c(NC(C)=O)c1)c1cccc(C)c1 39.8 µM [inhibitor, single point]
CCOc1cccc(C(=O)Nc2ccc3oc(-c4ccc(C(C)(C)C)cc4)nc3c2)c1 11.2 µM [inhibitor, partial curve, poor fit]
CCOC(=O)CNC(c1ccccc1)c1cc(Br)ccc1NC(=O)c1ccc(Cl)cc1 (stereo not given) 20 µM [inhibitor, single point]
CCC(=O)Nc1ccc2nc(SCCOc3cccc(C)c3)sc2c1 39.8 µM [inhibitor, single point]
CC(C)Cc1ccc(S(=O)(=O)Nc2ccc3[nH]c(=O)[nH]c3c2)cc1 15.8 µM [inhibitor, partial curve, poor fit]
Cc1nc(C)c(CCNS(=O)(=O)c2ccc(C)c(C)c2)s1 17.8 µM [inhibitor, partial curve]
Cc1ccc(Cc2nc3ccccc3nc2SCC(=O)N2CCCCC2)cc1 28.2 µM [inhibitor, single point]
CCOc1ccc(CN2CCN(S(=O)(=O)c3ccc(Cl)cc3)CC2)cc1 28.2 µM [inhibitor, partial curve, poor fit]
O=C(Cn1cc(S(=O)(=O)c2ccc(F)cc2)c(=O)c2cc3c(cc21)OCO3)Nc1ccccc1 31.6 µM [inhibitor, single point]
Cc1cccc(NC(=O)C(=O)NCC(c2cccnc2)N2CCc3ccccc32)c1C (stereo not given) 28.2 µM [inhibitor, single point]
CCOC(=O)c1cc(-c2ccccc2)n(CCC(=O)Nc2ccc(OC)c(Cl)c2)c1C 14.1 µM [inhibitor, partial curve, poor fit]
Cc1ccc(C)c(NC(=O)c2ccc(=O)n(Cc3ccc(F)cc3)c2)c1 39.8 µM [inhibitor, single point]
CCOc1ccc(CC(=O)NCCS(=O)(=O)N2CCN(c3ccccc3OC)CC2)cc1 31.6 µM [inhibitor, partial curve, poor fit]
COc1ccccc1CNC(=O)Nc1ccc2c(c1)N(C)C(=O)c1ccccc1S2 17.8 µM [inhibitor, single point]
Clc1cccc(-c2noc3ncnc(NC4CCCCC4)c23)c1 10 µM [inhibitor, partial curve, poor fit]
O=C(Nc1ccc(Br)cc1)c1ccc(Br)c(S(=O)(=O)NCc2ccccc2)c1 39.8 µM [inhibitor, single point]
CC1Cc2cc(S(=O)(=O)NCc3ccc(F)cc3)ccc2N1C(=O)C1CCC1 (stereo not given) 17.8 µM [inhibitor, partial curve, poor fit]
O=C(NCc1cccs1)c1ccc(CSc2nc3ccncc3n2Cc2cccc(F)c2)cc1 25.1 µM [inhibitor, partial curve, poor fit]
O=S(=O)(c1ccc(Cl)cc1)c1nc(-c2ccccc2Br)oc1N1CCOCC1 25.1 µM [inhibitor, partial curve, poor fit]
COc1ccc2c(c1)CCc1c(C(=O)Nc3c(C)nn(Cc4ccccc4Cl)c3C)noc1-2 39.8 µM [inhibitor, single point]
CC1Cc2ccccc2N1S(=O)(=O)c1nnc(NC(=O)c2ccccc2Br)s1 (stereo not given) 31.6 µM [inhibitor, single point]
Cc1ccc(CNC(=O)c2c[nH]c3ccc(S(=O)(=O)Nc4ccc(C(C)C)cc4)cc3c2=O)cc1 20 µM [inhibitor, single point]
Cc1cccc(CS(=O)(=O)CC2Nc3ccc(C(=O)NCc4ccccc4)cc3NC2=O)c1 (stereo not given) 25.1 µM [inhibitor, single point]
Cc1ccc(C(=O)N2CCc3cc(CNC(=O)c4ccccc4F)ccc32)cc1 31.6 µM [inhibitor, partial curve, poor fit]
O=C(CS(=O)(=O)c1ccc(Cl)cc1)Nc1nc2ccc(Br)cc2s1 17.8 µM [inhibitor, partial curve, poor fit]
CSc1ccc(CCNC(=O)CN2C(=O)COc3ccc(S(=O)(=O)N4CCCC4)cc32)cc1 20 µM [inhibitor, partial curve, poor fit]
CCOc1ccc(NC(=O)c2cnn3c2NC(c2ccccc2)=CC3c2cccc(OC)c2OC)cc1 (stereo not given) 25.1 µM [inhibitor, partial curve, poor fit]
CCOC(=O)c1ccccc1NC(=O)CN(c1cc(C(F)(F)F)ccc1Cl)S(C)(=O)=O 25.1 µM [inhibitor, single point]

Potency, active:
Cc1ccc(C(=O)Nc2ccc3c(c2)N(C)C(=O)c2ccccc2S3)cc1F 12.6 µM
